# Where a name gives a salt, the structure may show the parent alone. ± gives the standard deviation of the averaged measurements. Over roughly 1,300 compounds, “normalised cell viability” has its median near 1; the lowest 2% begin near 0.14. This is one part of the list.
# System: V-C8 (BRCA2-deficient hamster cells)
# Assay: normalised cell viability (fraction of plate median); higher = more viable cells (less toxic)
# Settings: 5 µM
# Summary of the method: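 In two screens, library drugs at 5 μM were given for 3 days (screen 1) or 6 days (screen 2) to hamster V-C8 cells without BRCA2 and V-C8 cells with BRCA2 restored, seeded 24 h earlier in 96-well plates. A resazurin assay gave the cell viability readout, expressed as modified robust per cent of sample against the plate median, with triplicate wells averaged.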
SMILES,normalised cell viability (treatment time: 3 days),normalised cell viability (treatment time: 6 days)
CCC(C)(C)c1ccc(CC(C)CN2C[C@@H](C)O[C@@H](C)C2)cc1 (some centres undefined) [Amorolfine hydrochloride],0.991 ± 0.05,1.06 ± 0.14
CNC1(C)C2CCC(C2)C1(C)C (centres undefined) [Mecamylamine hydrochloride],0.936 ± 0.046,0.952 ± 0.053
Cn1c(=O)c2c(ncn2CC(O)CO)n(C)c1=O (centres undefined) [Diprophylline],1.06 ± 0.098,1 ± 0.022
NC(=O)c1cccnc1 [Nicotinamide],0.975 ± 0.033,1.12 ± 0.066
CC(=C(CCO)SSCC1CCCO1)N(C=O)Cc1cnc(C)nc1N (stereo in doubt) [Fursultiamine Hydrochloride],1.03 ± 0.025,1.03 ± 0.0084
CCC(C)(CN(C)C)OC(=O)c1ccccc1 (centres undefined) [Amyleine hydrochloride],1.074 ± 0.0072,1.02 ± 0.036
C=C(NC(=O)C(=C)NC(=O)c1csc(C2=N[C@@H]3c4csc(n4)[C@H]4NC(=O)c5csc(n5)[C@H]([C@](C)(O)[C@@H](C)O)NC(=O)[C@H]5CSC(=N5)/C(=C/C)NC(=O)[C@H]([C@@H](C)O)NC(=O)c5csc(n5)[C@]3(CC2)NC(=O)[C@H](C)NC(=O)C(=C)NC(=O)[C@H](C)NC(=O)[C@H]([C@@H](C)CC)N[C@@H]2C=Cc3c([C@H](C)O)cc(nc3[C@H]2O)C(=O)O[C@@H]4C)n1)C(N)=O [Thiostrepton],0.14 ± 0.011,0.126 ± 0.0091
CC(C)(Oc1ccc(C2CC2(Cl)Cl)cc1)C(=O)O (centres undefined) [Ciprofibrate],0.973 ± 0.022,1.01 ± 0.086
C=CCN1CCCC1CNC(=O)c1cc2nn[nH]c2cc1OC (centres undefined) [Alizapride HCl],1.02 ± 0.048,1.098 ± 0.0094
CC1=C(C(=O)O)N2C(=O)[C@@H](NC(=O)[C@H](N)c3ccc(O)cc3)[C@H]2SC1 [Cefadroxil],1.07 ± 0.057,1.08 ± 0.035
CC(C)(C)NCC(O)COc1cccc2c1CC(O)C(O)C2 (centres undefined) [Nadolol],1.02 ± 0.073,1.04 ± 0.035
CC[C@H](C)C(=O)O[C@H]1C[C@H](O)C=C2C=C[C@H](C)[C@H](CC[C@@H](O)C[C@@H](O)CC(=O)O)[C@H]21 [Pravastatin],0.967 ± 0.092,0.988 ± 0.085
CC1=C(C(=O)O)N2C(=O)[C@@H](NC(=O)[C@H](N)c3ccccc3)[C@H]2SC1 [Cephalexin monohydrate],1.25 ± 0.026,1.09 ± 0.1
CCOCCn1c(N2CCCN(C)CC2)nc2ccccc21 [Emedastine],0.996 ± 0.029,1.02 ± 0.058
COc1ccc2c(c1)c(CC(=O)OCC(=O)O)c(C)n2C(=O)c1ccc(Cl)cc1 [Acemetacin],1.13 ± 0.012,1.05 ± 0.052
Cc1nccn1CC1CCc2c(c3ccccc3n2C)C1=O (centres undefined) [Ondansetron Hydrochloride],1.07 ± 0.04,1.1 ± 0.082
"O=C1C(O)=C(O)C(=O)C(O)=C1O [Tetrahydroxy-1,4-quinone monohydrate]",1.01 ± 0.026,1.01 ± 0.048
CC(=O)NC[C@H]1CN(c2ccc(N3CCOCC3)c(F)c2)C(=O)O1 [Linezolid],1.04 ± 0.039,0.972 ± 0.047
Clc1cc(Cl)c(OCC#CI)cc1Cl [Haloprogin],0.354 ± 0.01,0.476 ± 0.052
Nc1nc(=O)[nH]cc1F [Flucytosine],1.06 ± 0.02,0.987 ± 0.025
Nc1nnc(-c2cccc(Cl)c2Cl)c(N)n1 [Lamotrigine],1.03 ± 0.024,1.03 ± 0.073
CC[C@@]1(O)C(=O)OCc2c1cc1n(c2=O)Cc2cc3c(CN(C)C)c(O)ccc3nc2-1 [Topotecan],0.144 ± 0.0092,0.166 ± 0.023
CC(=O)O[C@]1(C(C)=O)CC[C@H]2[C@@H]3C=C(C)C4=CC(=O)CC[C@]4(C)[C@H]3CC[C@@]21C [Megestrol acetate],0.918 ± 0.083,0.91 ± 0.034

SMILES,normalised cell viability (treatment time: 3 days),normalised cell viability (treatment time: 6 days)
Cc1cccc(C)c1NC(=O)CN1CCN(CCCC(c2ccc(F)cc2)c2ccc(F)cc2)CC1 [Lidoflazine],0.302 ± 0.021,0.549 ± 0.07
N=C(N=C(N)N)N1CCOCC1 [Moroxidine hydrochloride],0.95 ± 0.064,1.02 ± 0.059
CC(=O)OCC(=O)[C@@]12OC3(CCCC3)O[C@@H]1C[C@H]1[C@@H]3CCC4=CC(=O)C=C[C@]4(C)[C@@]3(F)[C@@H](O)C[C@@]12C [Amcinonide],0.994 ± 0.062,0.963 ± 0.06
CC(=O)Nc1ccc(OCC(O)CNC(C)C)cc1 (centres undefined) [Practolol],1.08 ± 0.066,1.07 ± 0.042
CN1[C@@H]2CC[C@H]1C[C@@H](OC(c1ccccc1)c1ccccc1)C2 [Benztropine mesylate],0.981 ± 0.012,1.02 ± 0.04
CCCC(=O)Nc1ccc(OCC(O)CNC(C)C)c(C(C)=O)c1 (centres undefined) [Acebutolol hydrochloride],0.97061 ± 0.00064,0.9785 ± 0.0078
O=C(Nc1ccccc1)OCC(CN1CCCCC1)OC(=O)Nc1ccccc1 (centres undefined) [Diperodon hydrochloride],1.02 ± 0.019,0.929 ± 0.18
CCCCC1C(=O)N(c2ccccc2)N(c2ccccc2)C1=O [Phenylbutazone],1.07 ± 0.053,1.07 ± 0.095
CC(=O)/N=c1/sc(S(N)(=O)=O)nn1C [Methazolamide],1.02 ± 0.023,1.02 ± 0.029
N=C(N)N1CCc2ccccc2C1 [Debrisoquin sulfate],1.05 ± 0.041,1.09 ± 0.013
CCCc1nc2c(C)cc(-c3nc4ccccc4n3C)cc2n1Cc1ccc(-c2ccccc2C(=O)O)cc1 [Telmisartan],0.931 ± 0.05,0.937 ± 0.048
CCCCOC(=O)c1ccc(O)cc1 [Butylparaben],1.07 ± 0.11,1.01 ± 0.1
"O=C(O)Cc1cc(I)c(Oc2ccc(O)c(I)c2)c(I)c1 [Tiratricol, 3,3',5-triiodothyroacetic acid]",0.981 ± 0.023,1.03 ± 0.032
COCCCOc1ccnc(C[S+]([O-])c2nc3ccccc3[nH]2)c1C (centres undefined) [Rabeprazole Sodium salt],0.9318 ± 0.0092,0.938 ± 0.038
O=C(CCCCC(=O)Nc1c(I)cc(I)c(C(=O)O)c1I)Nc1c(I)cc(I)c(C(=O)O)c1I [Iodipamide],1.03 ± 0.06,0.972 ± 0.029
CNCC[C@@H](Oc1ccccc1C)c1ccccc1 [Tomoxetine hydrochloride],0.906 ± 0.033,0.926 ± 0.066
Cc1c(NC(C)C)c(=O)n(-c2ccccc2)n1C [Isopyrin hydrochloride],0.949 ± 0.022,1.06 ± 0.028
CCCNC(C)C(=O)Nc1c(C)csc1C(=O)OC (centres undefined) [Articaine hydrochloride],1.03 ± 0.024,1.06 ± 0.084
NCCc1cc[nH]n1 [Betazole hydrochloride],1.04 ± 0.038,1.09 ± 0.025
COc1cccc(N(C)C(=S)Oc2ccc3c(c2)CCCC3)n1 [Liranaftate],0.805 ± 0.038,0.74 ± 0.046
CC(C[N+](C)(C)C)OC(N)=O (centres undefined) [Bethanechol chloride],1.01 ± 0.023,1.04 ± 0.034
COc1ccc([C@@H]2Sc3ccccc3N(CCN(C)C)C(=O)[C@@H]2OC(C)=O)cc1 [Diltiazem hydrochloride],1.07 ± 0.053,0.959 ± 0.046
"Cc1cn([C@H]2C[C@H](N=[N+]=[N-])[C@@H](CO)O2)c(=O)[nH]c1=O [Zidovudine, AZT]",0.965 ± 0.042,0.908 ± 0.052

SMILES,normalised cell viability (treatment time: 3 days),normalised cell viability (treatment time: 6 days)
COc1ccc2c(c1)C(=O)N(CCc1ccc(S(=O)(=O)NC(=O)NC3CCCCC3)cc1)C(=O)C2(C)C [Gliquidone],1.05 ± 0.077,1.08 ± 0.049
CN(C)CCN(Cc1ccc(Cl)cc1)c1ccccn1 [Chloropyramine hydrochloride],1.02 ± 0.045,1.09 ± 0.25
NS(=O)(=O)Cc1noc2ccccc12 [Zonisamide],1.01 ± 0.036,1.03 ± 0.065
O=C(CCCN1CCC(O)(c2ccc(Cl)cc2)CC1)c1ccc(F)cc1 [Haloperidol],0.662 ± 0.15,0.602 ± 0.052
Cc1ccc(C)c(OCCCC(C)(C)C(=O)O)c1 [Gemfibrozil],0.951 ± 0.038,1.03 ± 0.032
NC(=O)c1ccc[n+]([C@@H]2O[C@H](COP(=O)([O-])OP(=O)(O)OC[C@H]3O[C@@H](n4cnc5c(N)ncnc54)[C@H](O)[C@@H]3O)[C@@H](O)[C@H]2O)c1 [Nadide],1.01 ± 0.043,1.08 ± 0.028
CNCCC=C1c2ccccc2C=Cc2ccccc21 [Norcyclobenzaprine],0.959 ± 0.045,0.835 ± 0.035
COC(=O)CCc1ccc(OCC(O)CNC(C)C)cc1 (centres undefined) [Esmolol hydrochloride],1.04 ± 0.077,0.939 ± 0.08
CN1C(C(=O)Nc2ccccn2)=C(O)c2ccccc2S1(=O)=O [Piroxicam],1.01 ± 0.098,1.08 ± 0.017
COCCOC(=O)C1=C(C)NC(C)=C(C(=O)OC(C)C)C1c1cccc([N+](=O)[O-])c1 (centres undefined) [Nimodipine],0.986 ± 0.016,0.931 ± 0.019
CC1(C)S[C@@H]2[C@H](NC(=O)[C@H](N)c3ccccc3)C(=O)N2[C@H]1C(=O)OC1OC(=O)c2ccccc21 (some centres undefined) [Talampicillin hydrochloride],1.09 ± 0.082,1.02 ± 0.085
NC(=O)OCC(O)COc1ccc(Cl)cc1 (centres undefined) [Chlorphensin carbamate],1.04 ± 0.059,0.938 ± 0.049
C[C@]12CCC(=O)C=C1C=C[C@@H]1[C@@H]2CC[C@@]2(C)[C@H]1CC[C@@]21CCC(=O)O1 [Canrenone],1.04 ± 0.022,0.999 ± 0.038
CC(C)NC(=N)NC(=N)Nc1ccc(Cl)cc1 [Proguanil hydrochloride],0.196 ± 0.012,0.189 ± 0.014
Cc1nnc(SCC2=C(C(=O)O)N3C(=O)[C@@H](NC(=O)Cn4cnnn4)[C@H]3SC2)s1 [Cefazolin sodium salt],1.07 ± 0.022,1.08 ± 0.03
O=c1[nH]c(=O)n([C@H]2C[C@H](O)[C@@H](CO)O2)cc1C(F)(F)F [Trifluridine],0.22 ± 0.024,0.267 ± 0.04
COc1ccc2c3c1O[C@H]1C[C@@H](O)C=C[C@@]31CCN(C)C2 [Galanthamine hydrobromide],1.12 ± 0.072,1.04 ± 0.043
CCCCCCCCNC(C)C(O)c1ccc(SC(C)C)cc1 (centres undefined) [Suloctidil],0.204 ± 0.032,0.558 ± 0.07
CC(=O)CC(c1ccc([N+](=O)[O-])cc1)c1c(O)c2ccccc2oc1=O (centres undefined) [Acenocoumarol],0.82 ± 0.27,0.786 ± 0.044
S=c1[nH]cnc2nc[nH]c12 [Mercaptopurine],0.667 ± 0.062,0.621 ± 0.041
CN(Cc1ccc(C(C)(C)C)cc1)Cc1cccc2ccccc12 [Butenafine Hydrochloride],1.07 ± 0.047,1.01 ± 0.019
